Data on 74 compounds can be found in the supplement of paper PMC8183993.

Several values for one entry are separate records, joined by “and”; a condition that tells them apart may be missing. Identical values can stand only once. Counter-ions that a name gives are not always drawn. ± gives the standard deviation of the averaged measurements. Over roughly 3,100 compounds, “mean cytoplasmic OPP incorporation (global translation) relative to DMSO” has its median near 100; the lowest 2% begin near 56. The list shows a part of the results.

This experiment relates to U2OS. Kind of experiment: mean cytoplasmic OPP incorporation (global translation) relative to DMSO (% of DMSO); higher = more protein synthesis. The conditions noted are these: 10 µM; 24 h. The protocol:
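Primary image-based screen in U2OS cells: compounds at 10 uM for 24 h, then a 1 h o-propargyl-puromycin (OPP) pulse, click labelling, and high-throughput microscopy. Mean cytoplasmic OPP intensity and nuclei count were normalised to DMSO wells within each plate (DMSO = 100) and averaged over triplicate plates.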
As to `O=c1[nH]c(=O)n(C2CCCO2)cc1F` (centres undefined) [Ftorafur], the “mean cytoplasmic OPP incorporation” value is 102.
To `CCOC(=O)Nc1cc(-c2ccc(C)c(NS(C)(=O)=O)c2)nn2c(C)nnc12` [Bromosporine] belongs 92.1.
To `Cc1c(N(C)CS(=O)(=O)O)c(=O)n(-c2ccccc2)n1C` [Dipyrone] belongs 107.
As for `C[C@@H]1CCN(C(=O)CC#N)C[C@@H]1N(C)c1ncnc2[nH]ccc12`, the “mean cytoplasmic OPP incorporation” value was 98.7 and 97.2.
With `NNc1nncc2ccccc12` [Hydralazine HCl] the figure was 99.8; with `NNc1nncc2ccccc12` [Hydralazine hydrochloride], 100.
Turning to `CC(=O)OCC(CCn1cnc2cnc(N)nc21)COC(C)=O` [Famciclovir], the “mean cytoplasmic OPP incorporation” value was 103.
On to `COc1ccc([C@@H]2CC(=O)c3c(O)cc(O[C@@H]4O[C@H](CO)[C@@H](O)[C@H](O)[C@H]4O[C@@H]4O[C@@H](C)[C@H](O)[C@@H](O)[C@H]4O)cc3O2)cc1O` [Neohesperidin], for which the “mean cytoplasmic OPP incorporation” value is 111.
To `O=C(/C=C/c1ccc(O)c(O)c1)OCCc1ccccc1` [Caffeic acid phenethyl ester] belongs 81.5.
For the compound `C=CC(=O)Nc1cccc(Oc2nc(Nc3ccc(N4CCN(C)CC4)cc3OC)ncc2Cl)c1`, the “mean cytoplasmic OPP incorporation” value was 107.
With `CN1CCN(c2c(F)cc3c(=O)c(C(=O)O)cn(CCF)c3c2F)CC1` [Fleroxacin] the figure was 98.9; with `C[N+](C)(C)CC[N+]1(C)Cc2c(Cl)c(Cl)c(Cl)c(Cl)c2C1` [Chlorisondamine diiodide], 88.7.
To `C[C@H](CCC(=O)O)[C@H]1CC[C@H]2[C@@H]3[C@H](O)C[C@@H]4C[C@H](O)CC[C@]4(C)[C@H]3CC[C@]12C` [Chenodiol] belongs 102; to `Nc1cc(C(Cl)=C(Cl)Cl)c(S(N)(=O)=O)cc1S(N)(=O)=O` [Clorsulon], 96.4.
With `CC[C@H](C)C(=O)O[C@H]1CCC=C2C=C[C@H](C)[C@H](CC[C@@H]3C[C@@H](O)CC(=O)O3)[C@H]21` [Mevastatin] the figure was 102 ± 2.1; with `Cc1ccc2c(c1)C(=O)C1(O)CCN(c3ccccc3)C1=N2` (centres undefined) [(?)-Blebbistatin], 94.5.
Regarding `COc1c2occc2c(OC)c2c(=O)cc(C)oc12` [Khellin], the “mean cytoplasmic OPP incorporation” value came out at 86.9.
To `CC(=O)[C@]1(O)Cc2c(O)c3c(c(O)c2[C@@H](O[C@H]2C[C@H](N)[C@H](O)[C@H](C)O2)C1)C(=O)c1ccccc1C3=O` [Idarubicin HCl] belongs 60.3.
`Cn1ccc2cc(NC(=O)Nc3cccnc3)ccc21`: the “mean cytoplasmic OPP incorporation” value was 92.4.
As to `CS(=O)(=O)N1CCc2c(-c3cnc(N)nc3)nc(N3CCOCC3)nc21`, the “mean cytoplasmic OPP incorporation” value was determined as 79.4 ± 20.
With `O=c1oc2ccccc2c(O)c1Cc1c(O)c2ccccc2oc1=O` [Dicumarol] the figure was 93.9; with `O=C1c2ccccc2C(=O)c2c1ccc(O)c2O` [Alizarin], 106.
On to `CC(/C=C1\SC(=S)N(CC(=O)O)C1=O)=C\c1ccccc1` [Epalrestat], for which the “mean cytoplasmic OPP incorporation” value stood at 97.3.
For `CCC(=O)OCN1C(=O)C=CC1=O`, the “mean cytoplasmic OPP incorporation” value amounted to 99.3.
In the case of `CCCOc1ccn2c(C(C)=O)cc(-c3ccccc3S(C)(=O)=O)c2c1`, the “mean cytoplasmic OPP incorporation” value was 101.
To `CN1CCN(CCCN2c3ccccc3Sc3ccc(Cl)cc32)CC1` [Prochlorperazine dimaleate] belongs 116; to `CN(C)C[C@@H]1CCn2cc(c3ccccc32)C2=C(C(=O)NC2=O)c2cn(c3ccccc23)CCO1`, 90.3; to `Cc1nc(=O)c2cc(CN(C)c3ccc(C(=O)N[C@@H](CCC(=O)O)C(=O)O)s3)ccc2[nH]1` [Raltitrexed (Tomudex)], 97.6.
Turning to `CC1(C)O[C@@H]2C[C@H]3[C@@H]4CCC5=CC(=O)C=C[C@]5(C)[C@@]4(F)[C@@H](O)C[C@]3(C)[C@]2(C(=O)CO)O1` [Triamcinolone Acetonide], the “mean cytoplasmic OPP incorporation” value came out at 104.
For `N=C(N)SCCc1c[nH]cn1` [Imetit dihydrobromide], the “mean cytoplasmic OPP incorporation” value was found to be 99.
On to `COc1cc(O)cc(O)c1C(=O)/C=C/c1ccccc1` [Cardamonin], for which the “mean cytoplasmic OPP incorporation” value was found to be 104.
Take `CC(C)NCC(O)COc1ccc(CC(N)=O)cc1` (racemic) [(RS)-Atenolol]: the “mean cytoplasmic OPP incorporation” value is 105.
With `Cc1cnc(NC(=O)C2=C(O)c3ccccc3S(=O)(=O)N2C)s1` [Meloxicam] the figure was 103.
Turning to `O=C(O)CCCc1ccccc1` [sodium 4-Phenylbutyrate], the “mean cytoplasmic OPP incorporation” value is 122.
As for `O=C(O)COC(=O)Cc1ccccc1Nc1c(Cl)cccc1Cl` [Aceclofenac], the “mean cytoplasmic OPP incorporation” value worked out at 92.4.
To `c1ccc(CN2CCC3(CCc4ccccc43)CC2)cc1` [L-693,403 maleate] belongs 100; to `C[C@@H]1C[C@H]2[C@@H]3CCC4=CC(=O)C=C[C@]4(C)[C@@]3(F)[C@@H](O)C[C@]2(C)[C@@]1(O)C(=O)CO` [Dexamethasone], 105 ± 12; to `CCN1CCC[C@H]1CNC(=O)c1c(OC)ccc(Br)c1OC` [Remoxipride hydrochloride], 105.
To `CCN1CCC[C@H]1CNC(=O)c1c(OC)ccc(Br)c1OC` [Remoxipride Hydrochloride] belongs 104.
On to `CCN1CCN(c2cc3c(cc2F)c(=O)c(C(=O)O)cn3C2CC2)CC1` [Enrofloxacin], for which the “mean cytoplasmic OPP incorporation” value worked out at 98.2.
With `FC(F)c1nc2ccccc2n1-c1nc(N2CCOCC2)nc(N2CCOCC2)n1` the figure was 108; with `N=C(N)S/C=C\C(=O)O` [ZAPA sulphate], 107; with `Cc1nnc(NS(=O)(=O)c2ccc(N)cc2)s1` [Sulfamethizole], 97.8.
With `CN(C)c1ccc(/C=C2/C(=O)Nc3ccccc32)cc1` the figure was 88.7.
To `CC1CC(OC(=O)C(O)c2ccccc2)CC(C)(C)N1C` (centres undefined) [Eucatropine hydrochloride] belongs 123.
Take `COc1ccccc1S(=O)(=O)Nc1ccc2c(c1)CN(C)C(=O)N2`: the “mean cytoplasmic OPP incorporation” value stood at 62.3 ± 7.8.
For `c1cc2c(cc1C1CCCCC1)c1c3n2CCNC3CCC1` (centres undefined) [Tetrindole mesylate], the “mean cytoplasmic OPP incorporation” value amounted to 129.
In the case of `Cc1cc(Nc2ncnc3ccc(-c4ccc(CNCCS(C)(=O)=O)o4)cc23)ccc1Oc1ccn2ncnc2c1` [HER2 Inhibitor 1], the “mean cytoplasmic OPP incorporation” value is 119.
As to `CC(C(=O)O)c1ccc(N2Cc3ccccc3C2=O)cc1` (centres undefined) [Indoprofen], the “mean cytoplasmic OPP incorporation” value was 101.
With `CC1=Nc2ccc(Cl)cc2S(=O)(=O)N1` [Diazoxide] the figure was 98.2 ± 3.3.
For `O=C(NCCO[N+](=O)[O-])c1cccnc1` [Nicorandil], the “mean cytoplasmic OPP incorporation” value is 101 ± 4.9.
With `Cc1ccc(Cl)c(Nc2ccccc2C(=O)O)c1Cl` [Meclofenamic acid sodium salt monohydrate] the figure was 105; with `C=C1/C(=C\C=C2/CCC[C@]3(C)[C@@H]([C@H](C)/C=C/[C@@H](O)C4CC4)CC[C@@H]23)C[C@@H](O)C[C@@H]1O` [Calcipotriol], 95.5; with `C=C1/C(=C\C=C2/CCC[C@]3(C)[C@@H]([C@H](C)/C=C/[C@@H](O)C4CC4)CC[C@@H]23)C[C@@H](O)C[C@@H]1O` [Calcipotriene], 101.
Consider `COC(=O)Nc1nc2ccc(SC(C)C)cc2[nH]1` [Methiazole], for which the “mean cytoplasmic OPP incorporation” value was 71.8.
With `COC(=O)C1=C(C)NC(C)=C(C(=O)OCCCN2CCC(c3ccccc3)(c3ccccc3)CC2)[C@H]1c1cccc([N+](=O)[O-])c1` [S-(+)-Niguldipine hydrochloride], the “mean cytoplasmic OPP incorporation” value worked out at 102.
To `COC(=O)C1=C(C)NC(C)=C(C(=O)OCCCN2CCC(c3ccccc3)(c3ccccc3)CC2)[C@H]1c1cccc([N+](=O)[O-])c1` [Niguldipine] belongs 101.5 ± 1.
`COC(=O)C1=C(C)NC(C)=C(C(=O)OCCCN2CCC(c3ccccc3)(c3ccccc3)CC2)[C@H]1c1cccc([N+](=O)[O-])c1` [(S)-(+)-Niguldipine hydrochloride]: the “mean cytoplasmic OPP incorporation” value came to 116.
As to `CN(C)CCOc1ccc(/C(=C(/CCCl)c2ccccc2)c2ccccc2)cc1` [Toremifene], the “mean cytoplasmic OPP incorporation” value is 118.
For `CCN1CCN(C(=O)N[C@@H](C(=O)N[C@@H]2C(=O)N3C(C(=O)O)=C(CSc4nnnn4C)CS[C@H]23)c2ccc(O)cc2)C(=O)C1=O` [Cefoperazone dihydrate], the “mean cytoplasmic OPP incorporation” value was found to be 97.1.
For the compound `CNC(=O)[C@H](Cc1c[nH]c2ccccc12)NC(=O)[C@@H](CC(=O)NO)CC(C)C`, the “mean cytoplasmic OPP incorporation” value turned out to be 100.
As for `C[C@H]1C[C@H]2[C@@H]3CCC4=CC(=O)C=C[C@]4(C)[C@@]3(F)[C@@H](O)C[C@]2(C)[C@@]1(O)C(=O)CO` [Betamethasone (Celestone)], the “mean cytoplasmic OPP incorporation” value came out at 101.
With `C[C@H]1C[C@H]2[C@@H]3CCC4=CC(=O)C=C[C@]4(C)[C@@]3(F)[C@@H](O)C[C@]2(C)[C@@]1(O)C(=O)CO` [Betamethasone] the figure was 101; with `CCCC(CCC)C(=O)NO` [Valproic acid hydroxamate], 110.
For the compound `Cc1cc(/C(=C/Nc2ccc(Cl)cc2)C(=O)Nc2ccc(Cl)cc2)on1`, the “mean cytoplasmic OPP incorporation” value was 99.7.
With `Oc1ccc(OCc2ccccc2)cc1` [Monobenzone] the figure was 86.1; with `CNC(=O)c1cc(COc2nnc(Nc3ccc(Cl)cc3)c3ccoc23)ccn1` [Telatinib (BAY 57-9352)], 109.
With `CCCc1nc(C)c2c(=O)nc(-c3cc(S(=O)(=O)N4CCN(CC)CC4)ccc3OCC)[nH]n12` [Vardenafil], the “mean cytoplasmic OPP incorporation” value came out at 109.
With `CCCc1nc(C)c2c(=O)nc(-c3cc(S(=O)(=O)N4CCN(CC)CC4)ccc3OCC)[nH]n12` [Vardenafil Hydrochloride Trihydrate (Vivanza)], the “mean cytoplasmic OPP incorporation” value was 117.
As for `O=C(O)/C=C/c1ccc(Cn2ccnc2)cc1` [Ozagrel hydrochloride], the “mean cytoplasmic OPP incorporation” value amounted to 103.5 ± 0.18.
Take `COc1cc2nccc(Oc3ccc(NC(=O)C4(C(=O)Nc5ccc(F)cc5)CC4)cc3)c2cc1OC` [XL-184 free base (Cabozantinib)]: the “mean cytoplasmic OPP incorporation” value turned out to be 106.
To `COc1cc2nccc(Oc3ccc(NC(=O)C4(C(=O)Nc5ccc(F)cc5)CC4)cc3)c2cc1OC` [Cabozantinib malate] belongs 102; to `CCOc1nc2cccc(C(=O)O)c2n1Cc1ccc(-c2ccccc2-c2noc(=O)[nH]2)cc1` [Azilsartan (TAK-536)], 88.7.
With `COCCOC(=O)C1=C(C)NC(C)=C(C(=O)OC/C=C/c2ccccc2)C1c1cccc([N+](=O)[O-])c1` (centres undefined) [Cilnidipine] the figure was 103 ± 9.3.
